{"source": "PubChem BioAssay AID1460", "about": "(National Center for Advancing Translational Sciences (NCATS), 2008)", "note": "Out of some 270,000 compounds screened, about 5,800 (2.1%) were called active. This list was built around the results that the source calls inconclusive (neither active nor inactive); the mix of calls is not that of the screen. Calls come from the whole dose curve; as a rule, active = well fitted inhibition curve with a large enough effect; inconclusive = small, poorly fitted or top-dose-only effect; inactive = flat fitted curve, though single readings scatter. Potencies of inconclusive entries are doubtful fits and often do not repeat. % is set by controls: 0 for no effect and ±100 for the full control effect; potency is the fitted concentration of half-maximal effect; tags give direction and shape of the fitted curve.", "data": [{"target": "Microtubule-associated protein tau (Homo sapiens) (UniProt P10636)", "sequence (P10636 whole entry, looked up, the tested form may be a part)": "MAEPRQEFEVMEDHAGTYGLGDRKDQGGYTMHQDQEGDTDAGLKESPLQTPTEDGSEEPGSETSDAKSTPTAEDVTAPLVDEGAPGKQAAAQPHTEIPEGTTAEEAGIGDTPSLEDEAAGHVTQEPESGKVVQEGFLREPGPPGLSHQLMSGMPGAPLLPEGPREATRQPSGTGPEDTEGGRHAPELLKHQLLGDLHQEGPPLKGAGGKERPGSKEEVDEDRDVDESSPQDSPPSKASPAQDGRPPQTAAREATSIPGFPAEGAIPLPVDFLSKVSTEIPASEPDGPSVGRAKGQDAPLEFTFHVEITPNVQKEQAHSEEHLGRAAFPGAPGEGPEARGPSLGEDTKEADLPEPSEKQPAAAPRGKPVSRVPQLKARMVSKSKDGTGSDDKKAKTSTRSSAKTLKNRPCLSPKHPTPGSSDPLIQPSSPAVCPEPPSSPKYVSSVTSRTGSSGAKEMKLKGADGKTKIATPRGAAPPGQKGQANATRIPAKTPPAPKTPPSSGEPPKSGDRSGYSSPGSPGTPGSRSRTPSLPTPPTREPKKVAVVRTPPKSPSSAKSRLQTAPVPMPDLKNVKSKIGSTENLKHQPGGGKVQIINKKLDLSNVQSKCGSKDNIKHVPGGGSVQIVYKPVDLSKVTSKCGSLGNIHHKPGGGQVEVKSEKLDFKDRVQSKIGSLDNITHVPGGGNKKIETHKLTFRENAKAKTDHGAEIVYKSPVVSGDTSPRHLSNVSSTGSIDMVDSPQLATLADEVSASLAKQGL", "experiment": "qHTS for Inhibitors of Tau Fibril Formation, Thioflavin T Binding; note: nearly all actives have a fitted effect of over 55% in size", "details": "recombinant tau K18 P301L (four-repeat tau fragment), heparin-induced fibrillization, ThT fluorescence; series mostly up to 57.4 µM; activity, negative = inhibition: at the top concentration", "how_it_was_run": "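Heparin-induced fibrillization of the P301L-mutant K18 repeat-domain fragment of human tau was followed by ThT binding in quantitative high-throughput format.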", "values": [{"compound": "COC(=O)c1ccc([C@@H]2C[C@H]3CN(Cc4cccnc4)C(=O)[C@]34CCCN24)cc1", "Potency": "inconclusive: 28.2 µM [inhibitor, partial curve]"}, {"compound": "CCOC(=O)c1cnn(-c2ccc(C(=O)Nc3ccc(OC(F)(F)F)cc3)cc2)c1N", "Potency": "inconclusive: 0.178 µM [inhibitor, full curve]"}, {"compound": "Cc1cc(N2CCN(c3cccc(C)c3C)CC2)n2cnnc2n1", "Potency": "inconclusive: 3.55 µM [inhibitor, full curve]"}, {"compound": "CCN1CCN(c2cc(C)c3cc(NC(=S)N4CCCC(C)C4)ccc3n2)CC1", "note": "(configuration not stated)", "Potency": "inconclusive: 25.1 µM [inhibitor, partial curve]"}, {"compound": "Oc1ccc(F)c2cccnc12", "activity, negative = inhibition": "inactive: -11.8%"}, {"compound": "COc1cccc(NC(=S)N(CCc2ccc(OC)c(OC)c2)Cc2ccccn2)c1", "activity, negative = inhibition": "inactive: -7.51%"}, {"compound": "CC1CC(CC(=O)Nc2nc(-c3ccccc3)cs2)C(=O)O1", "note": "(configuration not stated)", "activity, negative = inhibition": "inactive: 5.8%"}, {"compound": "O=C(Oc1c(-c2ccccc2)oc2ccccc2c1=O)c1ccccc1", "Potency": "inconclusive: 28.2 µM [inhibitor, partial curve]"}, {"compound": "Nc1ccc(N2CCN(c3ccccc3)CC2)c(F)c1", "Potency": "inconclusive: 17.8 µM [inhibitor, partial curve]"}, {"compound": "CN(C)c1ccc(-c2nc(NCc3cccnc3)c3ccccc3n2)cc1", "Potency": "active: 14.1 µM"}, {"compound": "C/C(=N\\Nc1ccc([N+](=O)[O-])cc1)c1ccco1", "Potency": "active: 5.01 µM"}, {"compound": "C=CCOc1ccc(CNn2cn[nH]c2=S)cc1OC", "activity, negative = inhibition": "inactive: -14.2%"}, {"compound": "O=c1[nH]ncc(N2CCCCCC2)c1Cl", "activity, negative = inhibition": "inactive: -0.408%"}, {"compound": "CCOC(=O)c1cccc(NC(=O)CCCn2nc(C)c3c(C)n(-c4ccccc4)nc3c2=O)c1", "activity, negative = inhibition": "inactive: -5.27%"}, {"compound": "Cc1ccc(OCCSc2nnc(-c3cccs3)o2)cc1Cl", "Potency": "inconclusive: 10 µM [inhibitor, partial curve]"}, {"compound": "Cc1ccc(C)c(N2CCN(Cc3nnnn3C3CCCCC3)CC2)c1", "Potency": "inconclusive: 31.6 µM [inhibitor, partial curve]"}, {"compound": "Cc1ccc(C)c(N2CCN(C(=O)CCC(=O)Nc3ccc4nc(N5CCCCC5)cc(C)c4c3)CC2)c1", "Potency": "inconclusive: 22.4 µM [inhibitor, partial curve]"}, {"compound": "COC(=O)C1=C(O)/C(=C/c2cccc(OC)c2O)N=C1C", "Potency": "inconclusive: 39.8 µM [inhibitor, single point]"}, {"compound": "O=S(=O)(c1ccccc1)N1CCN=C1SCc1ccc(Cl)cc1", "Potency": "inconclusive: 25.1 µM [inhibitor, partial curve, poor fit]"}, {"compound": "Clc1ccccc1OCCN1CCC(Cc2ccccc2)CC1", "activity, negative = inhibition": "inactive: -8.64%"}, {"compound": "COc1ccc(C(=O)c2ccc(CC(=O)O)s2)cc1", "Potency": "inconclusive: 22.4 µM [inhibitor, single point]"}, {"compound": "COC(=O)NC(C(=O)OC)(C(=O)OC)c1ccccc1", "activity, negative = inhibition": "inactive: 6.8%"}, {"compound": "Cc1ccc(C2NC(C(=O)O)CS2)cc1", "note": "(configuration not stated)", "Potency": "inconclusive: 22.4 µM [inhibitor, partial curve]"}, {"compound": "COc1cc(NC(=O)c2cc(C3CC3)on2)c(OC)cc1Cl", "activity, negative = inhibition": "inactive: -30.8%"}, {"compound": "CCCN(Cc1cccs1)C(=O)Nc1cc(Cl)ccc1C", "activity, negative = inhibition": "inactive: -7.96%"}, {"compound": "CCCN1C(=O)/C(=C\\C=C2\\N(CC)c3ccccc3C2(C)C)SC1=S", "Potency": "inconclusive: 3.98 µM [inhibitor, partial curve]"}, {"compound": "O=C(Nc1nc2c(s1)CCCC2)c1cccnc1", "activity, negative = inhibition": "inactive: -1.16%"}, {"compound": "CCCCCCNc1nc(NCc2ccco2)nc(OCC)n1", "Potency": "inconclusive: 22.4 µM [inhibitor, single point]"}, {"compound": "Cc1nc(-c2nc(-c3c(C(=O)NN)noc3C)cs2)cs1", "Potency": "inconclusive: 15.8 µM [inhibitor, single point]"}, {"compound": "COCCn1nnnc1C(c1ccc2ncccc2c1)N1CCc2ccccc21", "note": "(configuration not stated)", "activity, negative = inhibition": "inactive: -13.1%"}, {"compound": "CCc1ccc2c(c1)C(c1ccc([N+](=O)[O-])cc1)=NNC(c1ccc(Br)cc1)=N2", "Potency": "inconclusive: 3.98 µM [inhibitor, full curve]"}, {"compound": "O=C(Nc1ccc2c(c1)OCO2)c1ccc(Br)o1", "Potency": "inconclusive: 6.31 µM [inhibitor, full curve]"}, {"compound": "CC(C)(C)C1=C[C@@H](CO)C[C@@H](CO)C1", "activity, negative = inhibition": "inactive: 5.83%"}, {"compound": "O=[N+]([O-])c1c(Nc2ccccc2O)cc(N2CCOCC2)c2nonc12", "Potency": "inconclusive: 10 µM [inhibitor, partial curve]"}, {"compound": "COC(=O)c1ccc(NC(=O)CC2C(=O)N(c3cccc(OC)c3)C(=O)N2Cc2ccco2)cc1", "note": "(configuration not stated)", "activity, negative = inhibition": "inactive: 7.69%"}, {"compound": "CC(C)Cc1ccc(S(=O)(=O)N2CCC(c3ccncc3)CC2)cc1", "activity, negative = inhibition": "inactive: 0.872%"}, {"compound": "Cc1nn(C(C)CC(=O)O)c(C)c1C", "note": "(configuration not stated)", "Potency": "inconclusive: 8.91 µM [inhibitor, partial curve]"}, {"compound": "COc1ccc(-n2nc([N+](=O)[O-])c(=NC3CCN(Cc4ccccc4)CC3)n2O)cc1", "Potency": "inconclusive: 17.8 µM [inhibitor, partial curve]"}, {"compound": "O=C1CC(c2ccccc2)CC(O)=C1C=NC1CCCCC1", "note": "(configuration not stated)", "Potency": "inconclusive: 11.2 µM [inhibitor, partial curve]"}, {"compound": "CCOC(=O)c1sc(NC(C)=O)cc1C", "activity, negative = inhibition": "inactive: -4.34%"}, {"compound": "O=S(=O)(/N=C/c1c(O)ccc2ccccc12)c1cccs1", "Potency": "inconclusive: 31.6 µM [inhibitor, single point]"}, {"compound": "CN(C)S(=O)(=O)c1cccc(NC(=S)N/N=C/c2cccc(O)c2)c1", "activity, negative = inhibition": "inactive: -13.2%"}, {"compound": "Cc1ccc(Cn2c(CN3CCC(C(=O)NCc4ccccc4C)CC3)cc3ccccc32)cc1", "activity, negative = inhibition": "inactive: -17.5%"}, {"compound": "CN(C)c1ccc(-n2cc3c(=O)n(C)c(=O)n(C)c3c2)cc1", "Potency": "active: 2.82 µM"}, {"compound": "Cc1ccc(CNc2nc(-c3ccco3)nn2S(C)(=O)=O)cc1", "activity, negative = inhibition": "inactive: 16.1%"}, {"compound": "C=CCSC1=Nc2sccc2C2=NC(=O)CN12", "activity, negative = inhibition": "inactive: -17.9%"}, {"compound": "COc1ccc2c(c1)c(=O)c(C(=O)c1ccc(C)c(C)c1)cn2CC(=O)Nc1ccc2c(c1)OCCO2", "activity, negative = inhibition": "inactive: -13%"}, {"compound": "CN1C(=O)/C(=C/c2cn(CC(=O)NCc3ccco3)c3ccccc23)NC1=S", "Potency": "active: 12.6 µM"}, {"compound": "Cc1cc(N2CCN(C)CC2)nc2ccc(NC(=S)N3CCOCC3)cc12", "Potency": "inconclusive: 25.1 µM [inhibitor, partial curve]"}, {"compound": "O=C1OC2(c3ccc(O)cc3Oc3cc(O)ccc32)c2ccccc21", "Potency": "inconclusive: 0.631 µM [activator, full curve]"}, {"compound": "COc1ccc(-c2nc3cc(C(C)C)ccc3o2)cc1NC(=O)c1ccccc1[N+](=O)[O-]", "Potency": "inconclusive: 2 µM [inhibitor, full curve]"}, {"compound": "CSc1nc2nccc(-c3ccc(Oc4ccccc4)cc3)n2n1", "Potency": "inconclusive: 22.4 µM [inhibitor, partial curve]"}, {"compound": "O=C(Nc1nc2ccc(Cl)cc2s1)c1ccc(N2CCCCC2)c([N+](=O)[O-])c1", "Potency": "active: 1.26 µM"}, {"compound": "O=C(Cc1cccs1)NC1CCCC1", "activity, negative = inhibition": "inactive: -8.04%"}, {"compound": "Cc1ccc(C2C(C#N)=C(N)Oc3n[nH]c(-c4cccnc4)c32)o1", "note": "(configuration not stated)", "Potency": "inconclusive: 22.4 µM [inhibitor, partial curve]"}, {"compound": "Cn1c(=O)c2c(nc(N/N=C/c3ccc(OC(=O)c4ccco4)cc3)n2Cc2ccc(F)cc2)n(C)c1=O", "Potency": "inconclusive: 7.94 µM [inhibitor, full curve, poor fit]"}, {"compound": "O=C(Nc1cccs1)Nc1c(F)c(F)cc(F)c1F", "Potency": "inconclusive: 39.8 µM [inhibitor, single point]"}, {"compound": "Cn1c(C(C#N)C2=C(Cl)C(=O)N(c3ccccc3)C2=O)nc2ccccc21", "note": "(configuration not stated)", "Potency": "active: 12.6 µM"}, {"compound": "CCOC(=O)c1c(C)[nH]c(C)c1S(=O)(=O)N(C)CC(=O)Nc1cc(Cl)ccc1C", "activity, negative = inhibition": "inactive: 7.48%"}, {"compound": "CCc1ccc(CNC(=O)c2c3c(nc4ccccc24)C(=O)N(C2CCCCC2)C3)cc1", "Potency": "inconclusive: 20 µM [inhibitor, single point]"}, {"compound": "CC1CC1C(=O)OCC(=O)Nc1ccc(N=Nc2ccccc2)cc1", "note": "(configuration not stated)", "Potency": "active: 7.94 µM"}, {"compound": "CC(=O)OCC1=C(C(=O)O)N2C(=O)[C@@H](NC(=O)CSc3ccncc3)[C@H]2SC1", "Potency": "inconclusive: 20 µM [inhibitor, partial curve]"}, {"compound": "COc1ccc(NC(=O)/C=C/c2ccc3c(c2)OCO3)cc1", "Potency": "inconclusive: 3.98 µM [inhibitor, single point]"}, {"compound": "Cc1cccc(C(=O)CC(=O)c2cc(Cl)ccc2O)c1", "Potency": "inconclusive: 44.7 µM [inhibitor, single point]"}, {"compound": "Cc1cccc(OCCSc2nc3ccccc3n2CC(=O)N2CCOCC2)c1", "activity, negative = inhibition": "inactive: -7.45%"}, {"compound": "COc1cccc(-c2nc(S(=O)(=O)c3ccccc3)c(N3CCCCC3)o2)c1", "activity, negative = inhibition": "inactive: -4.03%"}, {"compound": "Cn1c(=O)cc(SCC(=O)NCCCN2CCOCC2)c2ccc(Cl)cc21", "activity, negative = inhibition": "inactive: 2.97%"}, {"compound": "O=C(N/N=C/c1ccc(N2CCOCC2)cc1)c1ccccc1OCCOc1ccccc1", "Potency": "inconclusive: 20 µM [inhibitor, partial curve]"}, {"compound": "COc1cc(C=O)ccc1OS(=O)(=O)c1ccccc1[N+](=O)[O-]", "activity, negative = inhibition": "inactive: -4.34%"}, {"compound": "O=C1CC(Cc2ccccc2)C(=O)N1Cc1ccco1", "note": "(configuration not stated)", "Potency": "inconclusive: 25.1 µM [inhibitor, partial curve]"}, {"compound": "CSc1nsc(SCC(=O)N2CCc3ccccc32)n1", "Potency": "inconclusive: 4.47 µM [inhibitor, full curve]"}, {"compound": "Cc1ccc(S(=O)(=O)Nc2nc(C)c(NC(=O)OCCCl)s2)cc1", "activity, negative = inhibition": "inactive: -7.33%"}, {"compound": "COc1ccc(NC(=S)N(CCc2c(C)[nH]c3ccccc23)Cc2ccco2)cc1", "Potency": "inconclusive: 1.78 µM [inhibitor, full curve]"}, {"compound": "O=C(NCc1ccccc1F)C1CCN(c2nnc(-n3cccc3)s2)CC1", "Potency": "inconclusive: 10 µM [inhibitor, partial curve]"}, {"compound": "O=[N+]([O-])c1ccccc1CN1CCN(Cc2c[nH]c3ccccc23)CC1", "activity, negative = inhibition": "inactive: -2.86%"}, {"compound": "Cc1ccc(-n2c(=S)[nH]c3sc4c(c3c2=O)CCc2ccccc2-4)cc1", "Potency": "inconclusive: 3.98 µM [inhibitor, full curve]"}, {"compound": "Cc1nc2cc(NC(=O)Nc3cccc4ccccc34)ccc2n1C", "Potency": "inconclusive: 5.62 µM [inhibitor, partial curve]"}]}]}
